To fix the notation:
B1: TEV protease; numbered along this chain (parent)
chain: MGESLFKGPRDYNPISSSICHLTNESDGHTTSLYGIGFGPFIITNKHLFRRNNGTLVVQSLHGVFKVKDTTTLQQHLVDGRDMIIIRMPKDFPPFPQKLKFREPQREERICLVTTNFQTKSMSSMVSDTSCTFPSGDGIFWKHWIQTKDGQCGSPLVSTRDGFIVGIHSASNFTNTNNYFTSVPKNFMELLTNQEAQQWVSGWRLNADSVLWGGHKVFMVKPEEPFQPVKEATQL

This is one part of the list. The full chains were built here from the parent and the listed change. Values near 0.05 are background.

In the assay the parent is B1. As to the kind of experiment: raw area under fraction-flipped curve 0-4 h after induction (AUC4h, not background-subtracted), DNA-recorder readout of cleavage of the substrate (dimensionless); higher = more cleavage of the substrate by the protease variant. Conditions: temperature: 34 °C; time window: 0-4 h after rhamnose induction.

Consider three variants from the supplement of paper PMC12217912.
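Also: Bxb1 expression induced with 0.2% (w/v) L-rhamnose at OD600 near 0.5, cultures sampled hourly, flipped fraction per protease–substrate barcode pair counted by paired-end Illumina sequencing.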

Turning to MGESLFKGPRDYNPISSSICHLTNESDGHTTSLYGIGFGPFIITNKHLFRRNNGTLVVQSLHGVFKVKDTTTLQQHLVDGRDMIIIRMPKDFPPFPQKLKFREPQREERICLVTTNFQTKSMSSMVSDTSCTFPSGDGIFWKHWIQTKDGQCGSPLVSTRDGFIVGIHSASNFTNTNNYFTSVPKNFMELLTNQEAQQWVSGWRLNADSVLWGGHKVFMVKPEEPFQPVKEATWL [Q234W], the “area with substrate EALYFQS” value turned out to be 0.116, the “area with substrate ECLYFQS” value was determined as 0.118, the “area with substrate EDLYFQS” value amounted to 0.0862 and the “area with substrate EELYFQS” value amounted to 0.113. The “area with substrate EHLYFQS” value worked out at 0.105, the “area with substrate EILYFQS” value was found to be 0.0911, the “area with substrate ELLYFQS” value was found to be 0.0897 and the “area with substrate EPLYFQS” value was determined as 0.0583. Further, the “area with substrate EQLYFQS” value was determined as 0.0856, the “area with substrate ERLYFQS” value came out at 0.109, the “area with substrate ESLYFQS” value stood at 0.0995 and the “area with substrate EVLYFQS” value came out at 0.0996.

In the case of MGESLFKGPRDYNPISSSICHLTNESDGHTTSLYGIGFGPFIITNKHLFRRNNGTLVVQSLHGVFKVKDTTTLQQHLVDGRDMIIIRMPKDFPPFPQKLKFREPQREERICLVTTNFQTKSMSSMVSDTSCTFPSGDGIFWKHWIQTKDGQCGSPLVSTRDGFIVGIHSASNFTNTNNYFTSVPKNFMELLTNQEAQQWVSGWRLNADSVLWGGHKVFMVKPEEPFQPVKEATNL [Q234N], the “area with substrate EALYFQS” value came out at 0.129, the “area with substrate ECLYFQS” value came out at 0.0967, the “area with substrate EDLYFQS” value was determined as 0.156 and the “area with substrate EELYFQS” value is 0.148. Moreover, the “area with substrate EFLYFQS” value amounted to 0.103, the “area with substrate EGLYFQS” value was 0.118, the “area with substrate EILYFQS” value stood at 0.0543 and the “area with substrate EKLYFQS” value came out at 0.118. Further, the “area with substrate ELLYFQS” value came to 0.0997, the “area with substrate EMLYFQS” value came to 0.128, the “area with substrate EPLYFQS” value is 0.11 and the “area with substrate EQLYFQS” value amounted to 0.112. The “area with substrate ERLYFQS” value was determined as 0.0957, the “area with substrate ESLYFQS” value amounted to 0.103, the “area with substrate EVLYFQS” value was determined as 0.103 and the “area with substrate EWLYFQS” value stood at 0.0939. For the same variant, the “area with substrate EYLYFQS” value turned out to be 0.0896.

For MGESLFKGPRDYNPISSSICHLTNESDGHTTSLYGIGFGPFIITNKHLFRRNNGTLVVQSLHGVFKVKDTTTLQQHLVDGRDMIIIRMPKDFPPFPQKLKFREPQREERICLVTTNFQTKSMSSMVSDTSCTFPSGDGIFWKHWIQTKDGQCGSPLVSTRDGFIVGIHSASNFTNTNNYFTSVPKNFMELLTNQEAQQWVSGWRLNADSVLWGGHKVFMVKPEEPFQPVKCATQL [E231C], the “area with substrate EALYFQS” value stood at 0.0906, the “area with substrate ECLYFQS” value is 0.113, the “area with substrate EDLYFQS” value was found to be 0.149 and the “area with substrate EELYFQS” value stood at 0.102. For the same variant, the “area with substrate EILYFQS” value turned out to be 0.083, the “area with substrate EKLYFQS” value was determined as 0.108, the “area with substrate EMLYFQS” value was found to be 0.117 and the “area with substrate EPLYFQS” value stood at 0.103. The “area with substrate EQLYFQS” value was 0.16, the “area with substrate ERLYFQS” value stood at 0.104, the “area with substrate ESLYFQS” value came to 0.0867 and the “area with substrate ETLYFQS” value turned out to be 0.111. The “area with substrate EVLYFQS” value was found to be 0.089.
